Measured values reported in ChEMBL document CHEMBL5606460, “ASAP - DENV-2 NS2B-NS3 protease fluorescence single point” (2024).
About 110 (5.5%) of roughly 2,000 compounds showed an effect of 50% or more. This is one part of the list.

Target: Genome polyprotein (dengue virus type 2) (UniProt P29990)
[1] = Thailand/16681/1984, Concentration 25.0 uM, Number of replicates 1.0

Structure (SMILES): COc1ccc(CN(C)C(=O)C2CCN(c3ccc(C=O)cc3)CC2)cc1O
- inhibition [1]: 12%

Structure (SMILES): CCCCCC(=O)N[C@H](C(=O)NCc1cccc(CN)c1)C1CCOCC1
- inhibition (Thailand/16681/1984, Concentration 49.5 uM, Number of replicates 2.0, Standard deviation 0.3191238144371867 %): -0.317%
- inhibition (Thailand/16681/1984, Concentration 99.01 uM, Number of replicates 2.0, Standard deviation 0.8995270800981244 %): -1.52%
- inhibition (Thailand/16681/1984, Concentration 198.0 uM, Number of replicates 2.0, Standard deviation 0.867663767595949 %): -1.86%

Structure (SMILES): CNC(=O)c1cc(Cl)ccc1NS(=O)(=O)Cc1ncoc1C(F)F
- inhibition (Thailand/16681/1984, Concentration 49.5 uM, Number of replicates 2.0, Standard deviation 0.011958915383875116 %): -9.8%

Structure (SMILES): O=Cc1ccc(N2CCC(C(=O)N3CCN(c4ccc([N+](=O)[O-])cc4C(F)(F)F)CC3)CC2)cc1
- inhibition [1]: 16.7%

Structure (SMILES): O=Cc1ccc(N2CCC(C(=O)N3CCn4c(nnc4C(F)(F)F)C3)CC2)cc1
- inhibition [1]: 14.7%

Structure (SMILES): N#C[C@@H](NC(=O)C1CCN(c2ccc(C=O)cc2)CC1)c1ccc(F)cc1
- inhibition [1]: 13.8%

Structure (SMILES): COc1cc(CS(=O)(=O)C2CCOCC2)nc(N2CCNCC2)n1
- inhibition (Thailand/16681/1984, Concentration 49.5 uM, Number of replicates 2.0, Standard deviation 2.171535110399886 %): 0.445%
- inhibition (Thailand/16681/1984, Concentration 99.01 uM, Number of replicates 2.0, Standard deviation 1.244444665725213 %): 0.302%
- inhibition (Thailand/16681/1984, Concentration 198.0 uM, Number of replicates 2.0, Standard deviation 0.8896322631561329 %): 0.625%

Structure (SMILES): O=Cc1ccc(N2CCC(C(=O)NCc3cc(Cl)cc(Cl)c3)CC2)cc1
- inhibition [1]: 1.55%

Structure (SMILES): CCCC[C@H](NC(C)=O)C(=O)N[C@H](C(=O)NCc1ccc(CN)cc1)c1ccccc1
- inhibition (Thailand/16681/1984, Concentration 49.5 uM, Number of replicates 2.0, Standard deviation 1.3580554366166637 %): 0.537%
- inhibition (Thailand/16681/1984, Concentration 99.01 uM, Number of replicates 2.0, Standard deviation 18.440494023113153 %): 14.1%
- inhibition (Thailand/16681/1984, Concentration 198.0 uM, Number of replicates 2.0, Standard deviation 14.8908767477505 %): 56%

Structure (SMILES): COc1ccc(C)cc1NC(=O)CNC(=O)C1CCN(c2ccc(C=O)cc2)CC1
- inhibition [1]: 13.8%

Structure (SMILES): O=Cc1ccc(N2CCC(C(=O)Nc3cc(Cl)c(F)cc3F)CC2)cc1
- inhibition [1]: 14.9%

Structure (SMILES): c1ccc2c([C@H]3CCN(Cc4cnc5ccccn45)C3)c[nH]c2c1
- inhibition (Thailand/16681/1984, Concentration 49.5 uM, Number of replicates 2.0, Standard deviation 0.7151563656367946 %): 1.09%
- inhibition (Thailand/16681/1984, Concentration 99.01 uM, Number of replicates 2.0, Standard deviation 0.3281880684602654 %): 2.8%
- inhibition (Thailand/16681/1984, Concentration 198.0 uM, Number of replicates 2.0, Standard deviation 0.2432837478972515 %): 4.76%

Structure (SMILES): O=Cc1ccc(N2CCC(C(=O)N3CCN(C(=O)Cc4ccccc4)CC3)CC2)cc1
- inhibition [1]: 12.3%

Structure (SMILES): CC(C)(CO)NC(=O)c1cc(Cl)cc(NC(=O)c2c[nH]c(C(=O)N3CCCC3)c2)c1
- inhibition (Thailand/16681/1984, Concentration 49.5 uM, Number of replicates 2.0, Standard deviation 0.9785954951352289 %): -0.782%
- inhibition (Thailand/16681/1984, Concentration 99.01 uM, Number of replicates 2.0, Standard deviation 1.3032331973706335 %): -0.088%
- inhibition (Thailand/16681/1984, Concentration 198.0 uM, Number of replicates 2.0, Standard deviation 0.3823857967784853 %): 0.634%

Structure (SMILES): O=Cc1ccc(N2CCC(C(=O)Nc3nc4[nH]cnc4c(=O)[nH]3)CC2)cc1
- inhibition [1]: 12.7%

Structure (SMILES): Cc1ccc(C[C@H]2CCCN(C(=O)C3CCN(c4ccc(C=O)cc4)CC3)C2)cc1
- inhibition [1]: 11.2%

Structure (SMILES): COc1cc(COCc2cccnc2OC)nc(N2CCNCC2)n1
- inhibition (Thailand/16681/1984, Concentration 49.5 uM, Number of replicates 2.0, Standard deviation 1.1112599079343632 %): -1.61%
- inhibition (Thailand/16681/1984, Concentration 99.01 uM, Number of replicates 2.0, Standard deviation 0.08428096867353778 %): 0.635%
- inhibition (Thailand/16681/1984, Concentration 198.0 uM, Number of replicates 2.0, Standard deviation 0.32567822363144167 %): 1.43%

Structure (SMILES): O=Cc1ccc(N2CCC(C(=O)Nc3ccc4cc(Br)ccc4c3)CC2)cc1
- inhibition [1]: 11.2%

Structure (SMILES): CC(C)c1nc(CN(C)C(=O)C2CCN(c3ccc(C=O)cc3)CC2)cs1
- inhibition [1]: 15.9%

Structure (SMILES): O=c1c(N2CC[C@H](CO)C2)nccn1C1CC1
- inhibition (Thailand/16681/1984, Concentration 49.5 uM, Number of replicates 2.0, Standard deviation 2.4482264734756005 %): 8.46%
- inhibition (Thailand/16681/1984, Concentration 99.01 uM, Number of replicates 2.0, Standard deviation 2.8900822321462307 %): 18%
- inhibition (Thailand/16681/1984, Concentration 198.0 uM, Number of replicates 2.0, Standard deviation 2.1394185374850085 %): 33.2%

Structure (SMILES): CS(=O)(=O)C1CCN(C(=O)C2CCN(c3ccc(C=O)cc3)CC2)CC1
- inhibition [1]: 13.4%

Structure (SMILES): NCc1cccc(NC(=O)CCN2C(=O)OCc3ccccc32)c1
- inhibition (Thailand/16681/1984, Concentration 49.5 uM, Number of replicates 2.0, Standard deviation 2.5679236918339337 %): -3.54%
- inhibition (Thailand/16681/1984, Concentration 99.01 uM, Number of replicates 2.0, Standard deviation 2.2564444885847212 %): -3.95%
- inhibition (Thailand/16681/1984, Concentration 198.0 uM, Number of replicates 2.0, Standard deviation 3.0791944670650357 %): -5.2%

Structure (SMILES): O=Cc1ccc(N2CCC(C(=O)Nc3ccc(Br)nc3)CC2)cc1
- inhibition [1]: 14%

Structure (SMILES): O=C(NCc1cocn1)c1cc(Cl)ccc1NS(=O)(=O)c1ccc(Oc2ccccc2Cl)cc1
- inhibition (Thailand/16681/1984, Concentration 49.5 uM, Number of replicates 2.0, Standard deviation 0.2927162692291327 %): 78.5%
- inhibition (Thailand/16681/1984, Concentration 99.01 uM, Number of replicates 2.0, Standard deviation 0.11144031356026086 %): 70.2%
- inhibition (Thailand/16681/1984, Concentration 198.0 uM, Number of replicates 2.0, Standard deviation 0.4940824474713894 %): 60.8%

Structure (SMILES): Cc1nn(C)nc1-c1nn(C)cc1NC(=O)c1ccccc1C(F)(F)F
- inhibition (Thailand/16681/1984, Concentration 49.5 uM, Number of replicates 2.0, Standard deviation 2.7709187614774393 %): -3.06%
- inhibition (Thailand/16681/1984, Concentration 99.01 uM, Number of replicates 2.0, Standard deviation 2.812620033505876 %): -2.31%
- inhibition (Thailand/16681/1984, Concentration 198.0 uM, Number of replicates 2.0, Standard deviation 2.009504923047635 %): -2.5%
